# Hit rate of the full screen: of about 360,000 compounds, about 7,500 (2.1%) were called active. The shares of active, inactive and inconclusive entries below differ from those in the screen. The call rests on the fitted dose curve; in most records, active means well fitted cell-killing curve with a large enough effect; inconclusive means small, poorly fitted or top-dose-only effect, or effect the other way, or another doubt; inactive means no such curve, though single readings can be large or run the other way. No potency is given beside an inconclusive call; the fits are too rough.
# Test: qHTS for induction of synthetic lethality in tumor cells producing 2HG: qHTS for the HT-1080-IDH1KD cell line
# Details: HT-1080 IDH1 knockdown viability, ATP luminescence, 48 h; series mostly up to 46.1 µM
# Outline: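 Knockdown cells (IDH1KD HT-1080) received compounds 2 h after plating at 750 cells/well and were kept 48 h at 37 °C in 5% FBS RPMI. A CellTiter-Glo luminescence read gave % activity for curve fitting.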
# Potency means the concentration at half of the fitted maximal effect; tags describe the fitted curve by direction and shape.
row,Structure (SMILES),Potency
1,CC(C)CNC(=O)CSc1n[nH]c(=O)n1CCc1ccccc1,inactive
2,O=C(NCCOc1ccccc1)c1n[nH]c(=O)c2ccccc12,"inconclusive [cytotoxic, single point]"
3,COC(=O)C1=C(C)NC2=C(C(=O)CC(c3cccs3)C2)C1c1ccsc1 (stereo not given),"inconclusive [cytotoxic, single point]"
4,CCCC(=O)NC(=S)Nc1ccc(N2CCN(C(=O)c3cccs3)CC2)cc1,"inconclusive [cytotoxic, single point]"
5,O=C(CS(=O)(=O)c1cn(Cc2ccc(F)cc2)c2ccccc12)N1CCCCC1,"inconclusive [cytotoxic, single point]"
6,O=C(CSCc1ccccc1)N/N=C/c1cc2c(cc1Br)OCO2,"inconclusive [cytotoxic, single point]"
7,CCCc1cc(=O)[nH]c(-n2[nH]c3c(c2=O)CCCC3)n1,"inconclusive [cytotoxic, partial curve]"
8,O=C(NCc1nnc2c(C(F)(F)F)cc(Cl)cn12)c1cccnc1,inactive
9,COc1ccc(C(NC(=O)c2c(F)c(F)c(F)c(F)c2F)c2ccccc2)cc1 (stereo not given),"inconclusive [cytotoxic, single point]"
10,NC(=O)CC(NC(=O)c1ccc(Br)cc1)c1ccc(N2CCC(Cc3ccccc3)CC2)c([N+](=O)[O-])c1 (stereo not given),"inconclusive [cytotoxic, single point]"
11,S=C(c1cn(CCOc2ccccc2)c2ccccc12)N1CCCC1,"inconclusive [cytotoxic, single point]"
12,CCOC(=O)c1c(NC(=O)CCC(=O)N(CC)CC)sc2c1CC(C)(C)OC2,"inconclusive [rising, single point]"
13,CCOC(=O)C1=C(CNCc2ccccc2Cl)NC(=O)NC1c1cccc([N+](=O)[O-])c1 (stereo not given),"inconclusive [cytotoxic, partial curve]"
14,CCCC(c1nnnn1Cc1ccc(OC)cc1)N1CCN(C(=O)c2ccco2)CC1 (stereo not given),inactive
15,NC(=O)C1(N2CCCCC2)CCN(c2ccc3nnc(-c4ccccc4)n3n2)CC1,inactive
16,CCCn1c(NC(=O)c2cccc(S(=O)(=O)N3CCCC3)c2)nc2ccccc21,"inconclusive [cytotoxic, single point]"
17,CCOC(=O)c1ccc(NC(=O)CCc2nnc3ccc(N4CCN(C)CC4)nn23)cc1,"inconclusive [cytotoxic, single point]"
18,O=C(c1cccs1)N(Cc1nc2sc3c(c2c(=O)[nH]1)CCCC3)C1CCCC1,"inconclusive [cytotoxic, partial curve]"
19,COc1c(C)cc(C(O)c2ncc(-c3cccc4ccccc34)[nH]2)cc1C (stereo not given),"inconclusive [cytotoxic, single point]"
20,COc1ccccc1N1CCN(c2ncnc3n[nH]c(Br)c23)CC1,active: 18.4 µM
21,O=C(Nc1ccc(Cl)cn1)C1CCCN1S(=O)(=O)c1ccccc1 (stereo not given),inactive
22,CCCOc1ccc(N2C(=O)CC(N(CCc3ccc(OC)cc3)C(=O)c3ccccc3)C2=O)cc1 (stereo not given),"inconclusive [cytotoxic, single point]"
23,COc1cc(C(=O)NNC(=S)NC(=O)c2ccc3c(c2)OCO3)cc(OC)c1OC,"inconclusive [cytotoxic, partial curve, poor fit]"
24,COC(=O)c1ccc(Oc2cc(C)nc(SC)n2)cc1,active: 5.8 µM

row,Structure (SMILES),Potency
1,COc1ccccc1-c1cc(C(=O)NN)[nH]n1,active: 13 µM
2,O=C(C1CCC1)N1CCc2cc(S(=O)(=O)Nc3ccc4c(c3)OCO4)ccc21,active: 15.8 µM
3,CCOc1ccc(CCNC(=O)c2cnc(C)cn2)cc1OCC,inactive
4,COc1ccc(C(=O)NNC(=S)NC(=O)c2ccc(OC)cc2)cc1,"inconclusive [cytotoxic, single point]"
5,O=[N+]([O-])c1ccccc1-c1cc(-c2ccccc2O)n[nH]1,"inconclusive [cytotoxic, partial curve]"
6,Cc1cc(C)cc(C(O)c2ncc(-c3ccccc3C)[nH]2)c1 (stereo not given),"inconclusive [cytotoxic, partial curve]"
7,Cc1ccc(OCC(=O)c2cc(C)n(Cc3cccs3)c2C)c([N+](=O)[O-])n1,"inconclusive [cytotoxic, partial curve]"
8,CC(C)Cn1c(N)c(C(=O)COC(=O)c2cc(C3CC3)nc3ccccc23)c(=O)n(C)c1=O,"inconclusive [cytotoxic, single point]"
9,CC(=O)Nc1ccc2c(=O)n(-c3ccccc3)sc2c1,"inconclusive [cytotoxic, single point]"
10,CCOC(=O)c1c(NC(C)=O)sc(/C(C)=N/Nc2ccc(C(=O)O)cc2)c1C,inactive
11,CC(C)(C)c1nnc(NS(=O)(=O)c2ccc([N+](=O)[O-])cc2)s1,inactive
12,CCCCCCCCCCCC(=O)NC(Cc1ccc(OC)c([N+](=O)[O-])c1)C(=O)O (stereo not given),"inconclusive [cytotoxic, single point]"
13,Cc1ccc(NC(=O)CCn2cnc3ccccc3c2=O)cc1,inactive
14,FC(F)(F)c1ccccc1Cc1c(-c2ccco2)nc2ccc(Cl)cn12,"inconclusive [cytotoxic, single point]"
15,Cc1ccccc1N1C(=O)c2sc3nc4c(c(=O)n3c2C1=O)CCC4,"inconclusive [cytotoxic, full curve, poor fit]"
16,Cc1nc2c(OCc3ccc(Cl)cc3Cl)cccn2c1N(C)Cc1cccs1,"inconclusive [cytotoxic, single point]"
17,Cc1cc(C)nc(SCC(=O)N2CCc3ccccc32)n1,inactive
18,O=c1cnn([C@@H]2O[C@H](CO)[C@@H](O)[C@H]2O)c(=O)[nH]1,"inconclusive [cytotoxic, partial curve]"
19,O=C(COc1ccccc1Cl)Nc1ccc2c(c1)C(=O)NC2=O,"inconclusive [cytotoxic, single point]"
20,O=C(Nc1ccn(C2CCC(CO)O2)c(=O)n1)c1ccccc1 (stereo not given),"inconclusive [rising, single point]"
21,S=C(Nc1ccc(Nc2ccccc2)cc1)Nc1ccccn1,active: 16.4 µM
22,N#Cc1c(-c2ccc(F)cc2)c(-c2ccc(F)cc2)nn(CCO)c1=O,active: 8.2 µM
23,CCCCNC(=S)Nc1ccc(SC(F)F)cc1,"inconclusive [cytotoxic, partial curve]"
24,C(=C\c1ccccc1)/CN1CCN(C(c2cccs2)c2nnnn2-c2ccc3c(c2)OCCO3)CC1 (stereo not given),"inconclusive [cytotoxic, single point]"

row,Structure (SMILES),Potency
1,O=C(CN1CCOCC1)NNc1nc(-c2ccccc2)c2cc(Br)ccc2n1,inactive
2,CC(=O)Nc1cc(-c2cccc(NS(C)(=O)=O)c2)cn2c(-c3ccc(F)c(Cl)c3)cnc12,"inconclusive [cytotoxic, single point]"
3,COc1ccc(C2=C(C=O)Cc3ccccc3O2)cc1,"inconclusive [cytotoxic, single point]"
4,Cc1cccc(C(=O)Nc2ccc(NC(=O)c3ccccc3)cc2)c1,inactive
5,CCCCCCCN(C(=O)CCl)c1cccc(C)c1,"inconclusive [cytotoxic, single point]"
6,COc1ccc2oc(C(=O)Nc3nc(C)cs3)c(C)c2c1,"inconclusive [cytotoxic, single point]"
7,COc1ccc(S(=O)(=O)Nc2ccc3oc(C)c(C(C)=O)c3c2)cc1,"inconclusive [cytotoxic, single point]"
8,O=C(NCc1ccncc1)[C@@H]1CCCN1C(=O)[C@@H]1CCCN1,"inconclusive [rising, partial curve]"
9,O=C(NCCc1cccs1)C1CC(c2cccc(F)c2)=NO1 (stereo not given),inactive
10,CCN=c1scc(C)n1/N=C/c1cc(Br)c(O)c(OC)c1,"inconclusive [cytotoxic, single point]"
11,CCc1ccc(-c2cc(C)no2)cc1S(=O)(=O)N1CCCN(Cc2ccc(F)cc2)C1,"inconclusive [cytotoxic, single point]"
12,COc1ccc2c(c1)CCc1c(C(=O)Nc3c(C)nn(Cc4ccccc4)c3C)noc1-2,inactive
13,O=C(CCc1ccccc1)NNC(=S)NC(=O)c1ccc(Cl)cc1,"inconclusive [cytotoxic, partial curve]"
14,CCOc1ncccc1C(=O)N1CCN(c2cc(Cl)ccc2C)CC1,active: 1.3 µM
15,O=C(NCCOc1cccc(Cl)c1Cl)c1cc(-n2cnnc2)ccc1Cl,inactive
16,Cc1ccc(NC(=S)NC(NC(=O)c2ccccc2C)C(Cl)(Cl)Cl)c(C)c1 (stereo not given),"inconclusive [cytotoxic, single point]"
17,Cc1ccc(C)c(S(=O)(=O)N2CCN(C(=O)C3CCN(C(=O)c4ccc(F)cc4)CC3)CC2)c1,inactive
18,Cc1nc(-c2cccc(NC(=O)c3cccs3)c2)cs1,"inconclusive [cytotoxic, partial curve]"
19,O=C(c1ccc(-c2ccccc2Cl)o1)N1CCC1,inactive
20,CCCCOc1ncnc2c1[nH]c1ccc(C)cc12,active: 4.61 µM
21,O=C(NCc1ccncc1)C1Cc2c(-c3ccc4c(c3)OCO4)ccnc2O1 (stereo not given),"inconclusive [cytotoxic, single point]"
22,O=C(CCSc1ccccc1)Nc1nc2c(s1)CCCC2,"inconclusive [cytotoxic, single point]"

# — PubChem BioAssay AID686971 (National Center for Advancing Translational Sciences (NCATS), 2013)
